Whole data set: some 33,000 sequences, median “E-score (-0.5 to 0.5)” near -0.054, cut for the highest 2% near 0.39. The list shows a part of the results.
target: Ylr278c (UniProt Q05854); experiment: PBM E-score (8-mer binding enrichment) (E-score (-0.5 to 0.5)); higher = stronger / more preferred TF binding; most listed sequences are background and not binding sites; conditions: protein concentration: 200 nM; construct: GST-DNA-binding domain
In short: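 The E-score, a modified Wilcoxon-Mann-Whitney statistic, was computed by the Universal PBM Analysis Suite for every ungapped eight-base word pooled with its reverse complement. Scans behind it were normalised with masliner after bound GST-tagged yeast transcription factors were detected with fluorescent anti-GST. The proteins, at about 100-200 nM, had been applied to universal all-10-mer Agilent arrays made double-stranded by primer extension.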

| Sequence | PBM E-score |
| --- | --- |
| GTGGTAAA | 0.00807 |
| GATTCTGC | 0.0298 |
| GCGATCGA | 0.0931 |
| ATCAAACG | 0.0117 |
| ACTTCGGC | 0.286 |
| ATTGAAAA | 0.0694 |
| ATCCCGAT | 0.323 |
| GCTAATTA | 0.0306 |
| CCCAACAC | -0.0204 |
| ACTATAAT | -0.0937 |
| CACTATGA | -0.306 |
| AGGAAATC | 0.178 |
| ACGTTGCG | 0.0382 |
| CCACAAAA | -0.0463 |
| CCTGTAAC | -0.154 |
| GCCATAGC | -0.185 |
| AAATCATC | -0.0126 |
| AGACTCTG | -0.231 |
| AAAAATGT | 0.0376 |
| AATGATCC | 0.00784 |
| AGAACAAG | -0.0928 |
| AAGTAGCT | -0.302 |
| GTTGTATA | -0.18 |
| AAGAGGCA | -0.178 |
| CCAAGCAA | -0.208 |

| Sequence | PBM E-score |
| --- | --- |
| CACGTGCC | -0.1 |
| AGTTAGAG | -0.124 |
| CTGTTTCC | 0.0692 |
| AGAATTGA | -0.0344 |
| GTTAGTGA | -0.205 |
| ACGTGTGC | -0.36 |
| AAAGTCGG | 0.176 |
| TTATCCAA | 0.00093 |
| GACGGAAC | 0.192 |
| AGCAGTGG | -0.0331 |
| AGGTCTGA | -0.185 |
| CTGCGACC | -0.138 |
| AACGCCGA | 0.433 |
| AGCGGAAC | 0.333 |
| ATAGCGGA | 0.33 |
| GGACAATA | 0.138 |
| CTAGCTTA | -0.0476 |
| ACTCGAGG | -0.106 |
| AGAAAAAT | -0.0735 |
| CCTTGCCG | 0.0575 |
| GACAGCGC | 0.187 |
| ATCACAGC | -0.0699 |
| AATGGGCC | 0.0902 |
| CCCTGATC | 0.0512 |
| CTGTCATA | -0.302 |

| Sequence | PBM E-score |
| --- | --- |
| ACCGGTCG | 0.173 |
| CCCATCAC | -0.129 |
| CGAGAAGC | 0.101 |
| CCTGCTAC | -0.0899 |
| ACTCCGCA | 0.452 |
| ACAGAACA | -0.0986 |
| TAGGCGCA | -0.0323 |
| CCATGGCA | -0.0471 |
| GCGGAGTA | 0.449 |
| ACCCGGGA | 0.307 |
| CACAATCG | 0.0584 |
| GAAACAGC | 0.049 |
| CCGCTAAC | 0.194 |
| AGGTTACT | 0.0708 |
| CAATATCA | -0.144 |
| GTCAGAAC | -0.0451 |
| CAGCGGAA | 0.359 |
| GGAGTTAC | 0.399 |
| GACGATTA | -0.0026 |
| CCGACCCG | 0.271 |
| GAAGACGC | -0.0796 |
| CACCCCGG | 0.314 |
| AATCACAC | -0.055 |
| CTATCTTA | -0.0413 |
| GCTAAATA | -0.231 |

| Sequence | PBM E-score |
| --- | --- |
| CCGGGTGC | 0.283 |
| CAAATGTA | 0.135 |
| CTCAACAG | -0.24 |
| GAGTTTGC | 0.166 |
| CTAAGCTC | -0.179 |
| ATGGTGCG | -0.0428 |
| ACGGCCCT | -0.189 |
| CACTTAAG | -0.00775 |
| GCCCATGA | -0.125 |
| GCACGCCC | -0.00134 |
| AATCATGT | -0.25 |
| GGTCCTCA | 0.178 |
| AATGGCAG | -0.0973 |
| AGGTGACA | -0.211 |
| ACATAACA | -0.00458 |
| ATATTTGA | -0.231 |
| ATGCCTTA | -0.332 |
| AGTCACCA | -0.159 |
| CCCGTCTA | 0.0475 |
| GAGGGGAC | -0.0234 |
| CGATTAAC | 0.0875 |
| CATTACCG | 0.136 |
| ACAGACCG | 0.169 |
| ACACATCA | 0.0404 |
| TCTGGACA | -0.186 |

| Sequence | PBM E-score |
| --- | --- |
| ACTGTCTC | -0.162 |
| ACTTAAGT | -0.0988 |
| ACAGAGCG | -0.209 |
| ATTGTGCG | 0.0269 |
| AGGATTCG | 0.0905 |
| AGCTTCGA | -0.135 |
| CATGAGTA | -0.182 |
| ATTGCCGA | 0.278 |
| AGCCTGCA | -0.0771 |
| CTATATAG | -0.289 |
| CCAATTTA | 0.111 |
| AGAATGGA | -0.0313 |
| CTTCCCCA | -0.166 |
| CTAAAGTA | -0.14 |
| GGTGTACA | 0.0261 |
| AACGCCTC | -0.186 |
| CCAGTAAC | 0.0134 |
| CGCTTATC | -0.0789 |
| ACCCGTAG | -0.185 |
| ACAACCTC | -0.084 |
| ATCGCAAG | -0.113 |
| CAGGGGCG | -0.178 |
| AACGACCT | -0.0366 |
| CTGTGTGA | -0.0723 |
| CATTGCGG | 0.153 |

| Sequence | PBM E-score |
| --- | --- |
| TTCATGAA | -0.17 |
| GCGTGTGA | 0.0418 |
| CAGCGCGA | -0.182 |
| CGCTACCG | 0.208 |
| AGCATAGC | -0.317 |
| GGTCTCTA | -0.21 |
| GGAGTAAC | 0.274 |
| AGCGATCA | -0.00061 |
| AAAGCAGG | -0.07 |
| GCATCCCA | -0.0799 |
| GGTTGGTA | -0.0346 |
| CATGGGGG | -0.172 |
| TGCCGGCA | 0.347 |
| GCCCCGAA | 0.301 |
| CTATGATA | -0.155 |
| CAGCTCTA | -0.124 |
| AAACGGGA | 0.304 |
| AAAAATCG | -0.0603 |
| AAGCTCCT | -0.0423 |
| AAGTTCCG | 0.42 |
| GTGCAGGA | -0.185 |
| TACTGAGA | -0.179 |
| ACTTCTTA | 0.0214 |
| GTCGTTTA | 0.00681 |
| ACCCCAGT | 0.161 |

| Sequence | PBM E-score |
| --- | --- |
| AGATGATG | -0.0971 |
| CAGGAAGG | -0.232 |
| CTTCCATA | -0.266 |
| CAGGTAGA | -0.0589 |
| GGCCGTTA | 0.127 |
| GGGGGGCA | -0.37 |
| TGACCCCA | -0.0702 |
| GGCTAGCC | -0.226 |
| AGTTAACG | -0.107 |
| ACGGGCTG | -0.0606 |
| TCGGTAGA | 0.094 |
| CAGTCTAA | -0.108 |
| AAAATCTT | -0.102 |
| AGAGGGAG | -0.197 |
| ACCGGCAC | 0.297 |
| ACAGTGAG | -0.301 |
| CTTAGACC | -0.143 |
| AATTACCT | -0.0492 |
| GGGCATTA | -0.0729 |
| CTTAGCTC | 0.119 |
| CCTTCCAC | -0.187 |
| GCTCACTA | -0.239 |
| ACTTGTAC | -0.137 |
| CCTCTTCC | -0.142 |
| GACGAACC | 0.0713 |

| Sequence | PBM E-score |
| --- | --- |
| ATGGTAGC | -0.0197 |
| AGGGGCTC | -0.194 |
| TACCCTCA | -0.164 |
| GCCCAGTA | -0.0556 |
| AAGGTACC | -0.103 |
| GTTACAAA | -0.0452 |
| CCAGCGCA | 0.0176 |
| TAAGCGTA | -0.2 |
| CGCGGTTC | 0.162 |
| AGGAGGCG | 0.0553 |
| GAGGCACA | -0.0636 |
| CTATCGGC | 0.239 |
| CGTTGTGC | 0.0945 |
| AAGGCGAC | -0.0783 |
| ACGGCAGT | -0.0906 |
| CAGCTGAC | -0.00477 |
| CACACTCG | -0.0438 |
| CACGTCGC | 0.0696 |
| GCAGGAGC | -0.194 |
| ATCCACAA | -0.156 |
| GAGATATA | 0.0511 |
| ATTCCTTC | -0.00233 |
| ACGAATAC | -0.157 |
| AGTTGTGA | -0.0452 |
| AATACGGC | 0.107 |

| Sequence | PBM E-score |
| --- | --- |
| GGAAACAA | 0.0827 |
| CCAAACAA | 0.0214 |
| ACACCATG | -0.248 |
| CCGCCCGC | 0.349 |
| ATTATTGC | 0.0912 |
| CCTTGTAA | -0.099 |
| AAGCCTCG | -0.00794 |
| GATCAGAC | -0.172 |
| TAGATTAA | 0.00357 |
| CCCCTGTA | -0.019 |
| CAATCAAA | -0.00275 |
| AACAATCC | 0.161 |
| ACACTAAT | -0.105 |
| CGGCTGTC | 0.0899 |
| CCCGGCTC | 0.219 |
| CCTTCGAA | 0.155 |
| CGAGCGTC | -0.107 |
| AGACTCTA | -0.302 |
| CTTGTGGC | -0.229 |
